Out of some 310,000 compounds screened, about 11,000 (3.5%) were called active. Inconclusive results, whose numbers are uncertain, are shown with a selection of clear calls. Calls follow the shape of the dose curve; as a rule, active = well fitted inhibition curve with a large enough effect; inconclusive = small, poorly fitted or top-dose-only effect, or effect the other way; inactive = flat fitted curve, though single readings scatter. No potency is given beside an inconclusive call; the fits are too rough.
Test: VP16 counterscreen qHTS for inhibitors of ROR gamma transcriptional activity;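 also: Gal4-VP16 expression switched on by copper sulfate through the metallothionein promoter; nearly all actives have a fitted effect of over 50% in size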
Details: Drosophila S2 Gal4-VP16 UAS-luciferase, luminescence, 20 h; series mostly up to 53.6 µM
For `Cc1ccc(NC(=O)c2ccccc2NS(=O)(=O)c2ccc(Cl)s2)cc1S(=O)(=O)N1CCOCC1`, the Potency was inconclusive [inhibitor, single point].
For `COc1ccc(/C=N/N=C(\N)c2nonc2N)cc1`, the Potency was inconclusive [inhibitor, single point].
For `O=C(NCc1ccc(Cl)cc1)c1ccc(-c2ccccc2C(F)(F)F)o1`, the Potency was “inactive”.
For `COc1ccc(/C=N/NC(=O)c2cccc([N+](=O)[O-])c2)cc1O`, the Potency was inconclusive [activator, single point].
For `COc1ccc(C2/C=C\CN(C(=O)C3CCCCC3)C(Cc3ccccc3)C(=O)N2Cc2ccc(F)cc2)cc1` (configuration not stated), the Potency was “inactive”.
In the case of `COC(=O)C1=C(C)N(C)C(=S)NC1c1c(OC)ccc2ccccc12` (configuration not stated), the Potency is reported as inconclusive [inhibitor, single point].
In the case of `COC(=O)c1c(NC(=O)CN2C(=O)NC(CCc3ccccc3)C2=O)sc2c1CCCCC2` (configuration not stated), the Potency is reported as inconclusive [inhibitor, single point].
For `CC(=O)Oc1cccc(N2C(=O)c3ccc(C(=O)Nc4cccnc4)cc3C2=O)c1`, the Potency was “inactive”.
With `CCOc1ccc(N(C)c2ccc(/C=C3/SC(=S)NC3=O)cc2)cc1` the Potency was inconclusive [inhibitor, single point].
For `NC(=O)CN(c1ccccc1)C1SC(=O)N(Cc2ccccc2)C1=O` (configuration not stated), the Potency was inconclusive [activator, partial curve].
In the case of `O=C(C1=C[C@@H](c2ccc3c(c2)OCO3)C[C@@H](OCc2ccc(CO)cc2)O1)N1CCOCC1`, the Potency is reported as “inactive”.
For `CC1=NN(c2ccc(C)c(C)c2)C(=O)C1C(c1cccc(O)c1)C1C(=O)N(c2ccc(C)c(C)c2)N=C1C` (configuration not stated), the Potency was inconclusive [inhibitor, single point].
With `COc1ccc(C2=C(SC)CC2=NC(C)(C)C)cc1` the Potency was inconclusive [activator, single point].
In the case of `Cc1onc(-c2ccccc2Cl)c1C(=O)Nc1nnc(C(C)C)s1`, the Potency is reported as inconclusive [inhibitor, single point].
In the case of `CCn1c(SCC(=O)Nc2cccc(F)c2)nnc1-c1cc2cc(Br)ccc2o1`, the Potency is reported as inconclusive [inhibitor, single point].
With `C[C@@H](C(=O)Nc1ccc2c(c1)OCCO2)n1nnc2ccccc2c1=O` the Potency was inconclusive [activator, partial curve].
For `Cc1ccnc(NC(=S)NC(=O)c2cccs2)c1`, the Potency was active: 3.98 µM.
With `Cc1onc(-c2c(Cl)cccc2Cl)c1C(=O)Nc1nccs1` the Potency was inconclusive [inhibitor, single point].
With `CC(=O)c1cccc(NC(=O)/C(=C/c2ccncc2)NC(=O)c2ccccc2)c1` the Potency was “inactive”.
In the case of `C=CCOc1ccc(/C=C(\C#N)C(=O)Nc2ccccn2)cc1OC`, the Potency is reported as “inactive”.
For `Cc1ccc(C(=O)C=CNNC(=O)c2ccccc2)cc1`, the Potency was active: 7.08 µM.
For `CCOc1ccc(N(CCC#N)S(=O)(=O)c2ccc(OC)cc2)cc1`, the Potency was “inactive”.
For `CCC(NC(=O)c1cc(COc2cncc(Cl)c2)on1)c1ccc(C)cc1` (configuration not stated), the Potency was inconclusive [inhibitor, single point].
In the case of `NC(=S)n1[nH]c(-c2ccc([N+](=O)[O-])cc2)c(N=Nc2cccc([N+](=O)[O-])c2)c1=O`, the Potency is reported as active: 2.51 µM.
With `Nc1ccc(-c2nc3ccc(N)cc3o2)cc1` the Potency was active: 11.2 µM.
For `COc1ccc(C(=O)OCC(=O)Nc2nnc(-c3ccccc3)o2)cc1`, the Potency was active: 5.01 µM.
In the case of `Cc1cc(C(C)(C)C)cc(C)c1C[n+]1ccc2ccccc2c1`, the Potency is reported as inconclusive [inhibitor, single point].
For `CCOc1ccc(OCc2cccc(C(=O)Nc3ccc(CN4CCCCC4)cc3)c2)cc1`, the Potency was “inactive”.
In the case of `O=S(=O)(c1ccccc1)N1CCN(S(=O)(=O)N2CCCCCC2)CC1`, the Potency is reported as “inactive”.
With `O=C(CNC(=S)NC(=O)c1cccs1)c1ccccc1` the Potency was inconclusive [inhibitor, single point].
With `Cc1ccc(CC2C(=O)N(c3ccc(C)cc3)C(=O)C2C)cc1` (configuration not stated) the Potency was inconclusive [activator, partial curve].
For `COCCNC(=O)C1(CC(C)C)C=CCN1C(C)=O` (configuration not stated), the Potency was “inactive”.
For `CCn1c(O)c(N=NC(=S)NCC2CCCO2)c2ccccc21` (configuration not stated), the Potency was active: 1.78 µM.
In the case of `O=C(NCSc1ccnc(SCNC(=O)c2ccccc2)n1)c1ccccc1`, the Potency is reported as inconclusive [inhibitor, single point].
In the case of `Cc1ccc(-c2csc(C3C(N)=NC(S)=C(C#N)C34CCCCC4)n2)cc1` (configuration not stated), the Potency is reported as inconclusive [inhibitor, single point].
In the case of `CCN(CC)CCn1c(NC(=O)c2ccc(Cl)cc2)nc2ccccc21`, the Potency is reported as active: 2.51 µM.
In the case of `CN(Cc1ccco1)c1ncnc2ccc(-c3cccc(NS(C)(=O)=O)c3)cc12`, the Potency is reported as “inactive”.
With `CCCCNC(=S)NCc1ccc2c(c1)cc(C)n2C` the Potency was inconclusive [inhibitor, single point].
With `Cc1ccc(/C=N/Nc2nncn2N)cc1` the Potency was active: 12.6 µM.
For `O=[N+]([O-])C(=C1Nc2ccccc2N1)C(Cl)=C(Cl)Cl`, the Potency was inconclusive [inhibitor, single point].
For `COc1ccccc1OCCCn1cc(C#N)c2ccccc21`, the Potency was inconclusive [inhibitor, single point].
In the case of `Cc1cccc(/C=N/NC(=O)C(C)Nc2cccc3ccccc23)n1` (configuration not stated), the Potency is reported as inconclusive [inhibitor, single point].
With `CCOc1cc(-c2noc(N)c2C#N)cc(OCC)c1OCC` the Potency was inconclusive [inhibitor, single point].
With `CCN(C(=O)c1cc([N+](=O)[O-])ccc1NCc1cccnc1)c1ccccc1` the Potency was “inactive”.
For `COCc1cc(O)c(O)c(O)c1-c1c(COC)cc(O)c(O)c1O`, the Potency was “inactive”.
With `O=C(CNc1ccc(Br)cc1)NNC1=NCCC1` the Potency was active: 7.08 µM.
In the case of `COc1ccc(-c2nc(CN3CCC(C(=O)N4CCOCC4)CC3)c(C)o2)cc1C`, the Potency is reported as inconclusive [inhibitor, partial curve].

From PubChem BioAssay AID2546 (National Center for Advancing Translational Sciences (NCATS), 2010)
Potency is read from the fitted curve at half-maximal effect; tags tell the direction and shape of the fitted curve.
